Data: the supplement of paper PMC11417369
± gives the standard deviation of the averaged measurements. This is one part of the list.

tested on: PfAP2-LT AP2 domain (GST-tagged); assay: gcPBM binding intensity (ln(normalized median fluorescence intensity)); higher = stronger DNA binding
Method in brief: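 GST-fused DNA-binding domains of P. falciparum, expressed in E. coli, were applied at about 25 μg on average for 1 h to an Agilent 4 × 180k array of primer-extended double-stranded 36-bp intergenic genomic probes and negative controls. Binding intensity is the highest Masliner-normalised natural-log median intensity across replicate spots of either probe orientation, measured with Alexa488 anti-GST antibody and a 488 nm scan.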

Sequence	gcPBM binding intensity (ln)
TTTCAATGCATAAAAGTGCGCAATAATTTAAAGATC	9.03 ± 0.43
TATTTTATAAATACAAGTAAAATTAAATATATAATA [XGTACX_negctrl_site221]	8.3 ± 0.47
AGGAGGATATTACACAGTACCCAGGAAATCTACGGA [XGTACX_site4878]	8.85 ± 0.54
TTGTACTACAATCCTTTATTTATTTAAACCTGTATG [CACACA_negctrl_site428]	8.64 ± 0.54
ATAATATATATTAATACACACACACCGATATATATA [CACACA_site9261]	9.78 ± 0.17
GACCAATACTTTAAAAGTACAAACCTTATTTTATTT [XGTACX_site2718]	8.73 ± 0.63
AAAAAAAAATAAAATAAAATAAAATAAAATAATATA [CACACA_negctrl_site1798]	8.52 ± 0.64
ACATATGTATAATAATGTACGCATTAAATATAATTA [XGTACX_site7851]	9.1 ± 0.32
AAACAAATGTACAAAGTGCATATTTTTTTCAAAAGG	8.74 ± 0.46
TATATGTAATATTATACATGCATACATAATATATAT [TGCATGCA_site558]	8.75 ± 0.35
TATGTGAATATAATCACACACAATACGGAAAGAGAC [CACACA_site7311]	9.88 ± 0.46
TTTTTTTTTTATAAGGCACACATGAATATTTATACA [CACACA_site1316]	8.67 ± 0.47
ACCCACGTAAATTAAGCATGCCTTCCGTTATATTTA [TGCATGCA_site365]	9.11 ± 0.44
TTTTACTAAATATATACACACATTATGCATATATAT [CACACA_site3287]	9.04 ± 0.46
TTTTAAAGAAAAAAATGTACAAAATTTTTATTTTAA [XGTACX_site1496]	8.05 ± 0.64
AATGTGATAATATACACACACGCATATATATATATA [CACACA_site323]	10 ± 0.085
AAAACACTTATGGATTGTACAATAAAAATTATATTA [XGTACX_site7042]	8.89 ± 0.49
CTGTGTAATTTAAATTGTACGTTTGAAAAAAATAAA [XGTACX_site5667]	8.52 ± 0.38
TTCTGTGTGTATTGGCGTACAATTATTTTGCCTACA [XGTACX_site205]	9.17 ± 0.34
ACATTCACAAAATTTTGTACACATATATATATATAT [XGTACX_site3518]	9.585 ± 0.035

Sequence	gcPBM binding intensity (ln)
GTATTATCTGCTTTTTGTACACATATATTTAAAAAA [XGTACX_site7603]	8.72 ± 0.4
TAAATCATGGGATAAGCATGCGCGCACATGTTTGTT [TGCATGCA_site768]	9.05 ± 0.37
TTTATTTATTAAGAATGTACATGTATTTGTTAAATA [XGTACX_site4465]	8.35 ± 0.44
CCATTTGATAATAATGCACACCACATATATTTATAT [CACACA_site9002]	9.11 ± 0.43
CGATTTTTTAAGTTTGTGCACTTAAAAACTATAACA	8.53 ± 0.47
AAAAGGAATTATAGGAAATAAATATATACAAATATA [TGCATGCA_negctrl_site528]	8.69 ± 0.58
TATATGTCAATATCTACACACATATAGGTAATTATT [CACACA_site7475]	9.05 ± 0.38
TATACTATACAACACATACACACAAAAAAAAAAAAA [CACACA_site537]	9.21 ± 0.43
TATTTCAAAATAAAATAAAATATATATATATGTATA [XGTACX_negctrl_site416]	8.36 ± 0.49
CAAAAATAATTTAGGTGTACAAATTTGACAAAAAAA [XGTACX_site188]	8.84 ± 0.35
AATTCAATTGAGCAAAATTCAAATAAATTAAAAAGA [XGTACX_negctrl_site71]	8.54 ± 0.72
TGATAATATTATATATGTACATATATGTATATTTTT [XGTACX_site7193]	8.73 ± 0.42
ATGAAACACTCCATAGTGCAAAATATATATTATATT	8.9 ± 0.45
CTATTTTTCCTGAAATGTACAAGAATTTTATTTGAT [XGTACX_site8867]	8.52 ± 0.4
TTGGTATATTATAAAAGTACACATAATAAAAAATTT [XGTACX_site7985]	8.62 ± 0.4
ATATGGGTGAACATATGTACATATATATATTGATAA [XGTACX_site8438]	8.96 ± 0.45
CCTAAAGTGTAAAATTCACACACATATATATATATA [CACACA_site8385]	9.78 ± 0.16
TTTATTTATAGGTATACACACTTTAATTAAAAGTTG [CACACA_site7232]	8.62 ± 0.4
TTTATTTTTGAAGTTGCACACACAAAAATAAAAAGT [CACACA_site8030]	8.98 ± 0.3
TAATTTGTTATGTATTGTACAAATAATATATGATAT [XGTACX_site1985]	8.62 ± 0.35

Sequence	gcPBM binding intensity (ln)
ATTAAAAAAATATACGCACACAAAATGTAATAACAA [CACACA_site2439]	9.21 ± 0.36
TTTTGTTTAAAAAAAAAAAACAAAAAAAAGCAATTA [CACACA_negctrl_site314]	8.19 ± 0.42
TTACATAATTTATGTACACACGCAAATACTTATAAT [CACACA_site4331]	8.95 ± 0.4
ATAACTATAATAATCATACACACCAAAGAGAATATT [CACACA_site6970]	9.13 ± 0.38
ATTTTTCATTCTGGACATGTTACCATTATATATATG [CACACA_negctrl_site61]	9.23 ± 0.39
ATTATTACTTTTTGAGTGCACATACACACAGACATA	9.14 ± 0.23
AGTAGTCTGGAGAAGAGTACACAGTATCTGGTAGCT [XGTACX_site2042]	8.8 ± 0.38
ACATTAACATTGTTGGTGCAAAATTAATATGTTTTT [GTGCAC_site9673]	8.75 ± 0.44
TTAAATATTTTTTATACACACATTTCTTATTTAACT [CACACA_site229]	8.88 ± 0.54
TAATTATTATTAATAGTACACACTATGGCATTTCAA [CACACA_site2488]	8.71 ± 0.43
CAAACATATTAATGTACACACACCCACCCACAAACA [CACACA_site2752]	10.2 ± 0.29
TATTATATATATATATGTACATATTGTATGTTATAT [XGTACX_site5303]	9.16 ± 0.4
TTTTTTTCAATATTTGCACACGATTAAAATATTTAA [CACACA_site5266]	8.71 ± 0.38
TATGTGAATATTGAGGTGCGGTTGTTAAAATTTATA [GTGCAC_site9915]	8.79 ± 0.19
ATTATTCAGGTAAAGTGTACAGGAGAAAAATAAAAT [XGTACX_site334]	8.94 ± 0.6
ATATATATATATATATGTACGTATAATATATATATG [XGTACX_site2212]	9.465 ± 0.078
CGCACCCAAATATATACACACATATATATATATATA [CACACA_site1651]	10.1 ± 0.16
ATTGTAAGGAAACACACACACATATATATGTATATA [CACACA_site676]	9.68 ± 0.29
